According to the supplement of paper PMC3334620:
In all, about 33,000 sequences were measured (“E-score (-0.5 to 0.5)”: median about -0.012, highest 2% from about 0.27 on). Some of the results follow.

What follows are sequences tested against T1, Vhr1 (UniProt P40522) (assay: PBM E-score (8-mer binding enrichment) (E-score (-0.5 to 0.5)); higher = stronger / more preferred TF binding; most listed sequences are background and not binding sites). Settings: protein concentration: 200 nM; construct: GST-full length.
T1 sequence: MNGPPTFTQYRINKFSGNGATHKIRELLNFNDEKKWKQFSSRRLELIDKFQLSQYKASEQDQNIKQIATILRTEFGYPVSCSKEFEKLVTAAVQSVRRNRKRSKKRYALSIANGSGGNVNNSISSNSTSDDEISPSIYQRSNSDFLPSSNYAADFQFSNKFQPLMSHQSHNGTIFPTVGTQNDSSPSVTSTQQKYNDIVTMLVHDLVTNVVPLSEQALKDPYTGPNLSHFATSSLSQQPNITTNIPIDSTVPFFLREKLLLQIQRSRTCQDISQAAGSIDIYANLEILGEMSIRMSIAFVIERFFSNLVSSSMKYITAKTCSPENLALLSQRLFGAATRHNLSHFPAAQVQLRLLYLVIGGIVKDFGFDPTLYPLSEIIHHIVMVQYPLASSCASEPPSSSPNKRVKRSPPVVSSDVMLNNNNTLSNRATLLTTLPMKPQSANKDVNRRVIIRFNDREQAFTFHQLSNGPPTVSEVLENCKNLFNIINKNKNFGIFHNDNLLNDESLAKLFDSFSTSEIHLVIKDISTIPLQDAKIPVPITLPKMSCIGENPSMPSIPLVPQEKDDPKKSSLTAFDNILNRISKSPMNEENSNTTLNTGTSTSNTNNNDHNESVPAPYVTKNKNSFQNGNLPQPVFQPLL
Method: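 Universal 'all 10-mer' protein binding microarrays (Agilent AMADID 015681) probed with GST-tagged S. cerevisiae TFs (full-length or DBD) made by in vitro transcription/translation (PURExpress), about 100-200 nM. Bound TF was detected with fluorescent anti-GST. Each ungapped 8-mer (which stands for itself and its reverse complement) is scored by the PBM enrichment score (E-score), a modified Wilcoxon-Mann-Whitney statistic from -0.5 to +0.5, computed with the Universal PBM Analysis Suite. Scale: above 0.35 generally sequence-specific binding.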

Sequence | PBM E-score
CGGTAAAA | -0.0687
GACCTGCC | -0.031
CACTAACG | -0.0325
CCTTCCTC | -0.278
GCGTGACC | -0.0398
GAATATTC | 0.00293
ACTCGGGA | 0.236
CGATCCGC | 0.0637
AGTATTAC | 0.0584
AACGTGGC | -0.0566
CGAAAAGA | 0.156
ATGTAGAA | -0.129
AAATCGCC | -0.108
CAATCAAG | 0.00756
CACAGTTA | 0.21
ACGATACC | 0.106
CGTGTCTC | 0.196
AAGCAGAT | -0.0388
TGCGATAA | 0.121
CGTACACA | 0.238
ATGTCACC | 0.0142
TGCAAACA | -0.164
ACTAGGCG | 0.252
CGAATCGA | 0.193
CGTTGCTC | -0.0648

Sequence | PBM E-score
ATCCCGCG | 0.164
GTTGTAGA | -0.181
GAATGTCC | -0.149
AAGGATCA | -0.0925
ATGAAGAC | -0.0146
AACTTTAA | -0.0951
TAGCTGGA | -0.0696
GAAAGCCA | -0.191
CTGTCACA | 0.025
AAAAATTA | -0.0637
ATGCGTGC | -0.0589
ATGAGTTG | 0.173
CGTACGCC | -0.202
GGGAGCTA | -0.161
ATAAGGCA | -0.128
CTCGTGGA | -0.00995
GAGCGTGA | 0.0478
AGTCTCCG | 0.177
GCTGCCAC | -0.0308
AAGGACAT | -0.195
GAAAAATA | -0.226
ACTGACGA | 0.122
AGATACTC | 0.171
AACACTCA | 0.259
AGGAGCCA | 0.0479

Sequence | PBM E-score
TGGTGGAA | -0.159
ACAGGCCG | -0.016
GAGTACTC | 0.345
GCAGTGTA | 0.0845
ATGCCCGG | -0.0554
AAAATCCT | -0.144
CCTGGATA | -0.104
CCGCCGCG | 0.199
ATCCTTTG | -0.0873
ACCTTTTA | -0.189
GATCGGCC | -0.045
GTATGCAC | 0.0689
CACTTTTC | -0.0795
ACATCGCG | 0.183
TAAGTTAA | -0.166
GATTGTGC | 0.187
CCTGCCGC | -0.111
TCGGTAAA | -0.103
ACCAGCTC | 0.0604
CGTCAACG | -0.0358
AGATTCGC | 0.0358
ATACCACG | 0.0921
ATGGCGTG | 0.066
CCTAGACG | -0.0101
CTAATTTA | -0.11

Sequence | PBM E-score
CACTGCAG | -0.112
CGTGTACA | 0.103
CACTTTAA | 0.0651
ACCAAAGT | -0.0249
AACCAGTG | -0.0631
CGAAGCAG | 0.0148
TTCCTCAA | -0.19
ACAGCTGG | -0.119
GTAAAAGA | -0.14
GAAAGCGC | -0.0855
GAACCTTC | -0.203
CGATAGCG | 0.0302
CCAGCGGA | -0.212
ACTAAATA | 0.0772
ACGCATGC | 0.16
CCCTCTTA | -0.121
AAGGCTTG | -0.223
CAACGTAC | -0.0809
ACAACACT | 0.223
CCAAATAC | -0.0361
ACGCCGTA | -0.0679
GGATGTTA | -0.00061
CTCGGAAA | -0.104
CTTGCAGA | -0.0204
AGGGGTAT | -0.0881

Sequence | PBM E-score
CTATAATA | -0.112
CAAGCATA | 0.104
GTCGCGGA | 0.00363
AACATAGC | -0.0539
CACATCCA | 0.147
GCATAGGC | -0.193
CTGCGGAA | -0.0513
AGCGCGAA | 0.178
GATATTCA | -0.0177
AATTAGCT | -0.0274
GCCCCCCC | -0.238
CTCTCACC | 0.168
ACAGCCCT | -0.25
CGACATCG | -0.113
GTTATCTA | -0.143
GACCAGCA | 0.0649
AACACCGT | -0.0339
TCCTTGAA | -0.181
AGGGTTCG | -0.179
TATTGACA | -0.128
ACGGATAT | 0.114
CCAGGTCC | -0.159
GTTGGGTA | 0.0584
GGAGGCTA | -0.0627
CCCAAGGC | -0.0451

Sequence | PBM E-score
ATAATCGC | 0.0411
ACATTAAG | -0.134
CCCGCCGA | 0.00185
ACCGGTTA | -0.279
ACCACGGG | 0.0425
AATTTTAC | -0.0974
GTGTTATA | 0.0758
CCAAAAAG | -0.0555
GCTTCGGA | -0.0412
GATTATGA | 0.163
CAAGTTCA | 0.0736
CCGTTCGA | -0.00076
CGCGGCTC | 0.278
CTGCAGAA | 0.0335
CATGGCGG | 0.154
ATACAGAA | 0.169
CCGTGGCG | 0.189
CCTTAAAG | -0.337
AGCTGGTG | 0.116
CATTTAGG | -0.277
CATAACCC | 0.00324
CTTGCAAA | -0.0346
GAATTGTA | -0.1
AGAAACAA | 0.0133
CAGATGCA | -0.0339

Sequence | PBM E-score
AACCACGA | 0.196
AGTTGCGG | 0.125
ACGCCCTA | -0.206
AGCCGTGA | 0.134
ACAGTTAA | 0.0518
ATCCAGAC | -0.0123
GCACCAAA | -0.15
CTTAGTAC | 0.107
AGAGGTGA | 0.031
AGTTAATC | 0.126
AGTCAACG | 0.278
ATGGAACG | -0.11
GAAAACAC | -0.105
CCAAGTTC | -0.0409
GTGTTCCA | 0.0405
CGGCCCTA | -0.135
GCCGCTCA | -0.231
GTAAACTA | 0.0822
GCACCAGC | -0.0344
CAACGAAA | -0.0742
ACGGGAGG | -0.13
GTTAATCA | 0.296
ATTAGGAC | -0.173
TCTTACAA | -0.12
ATCGCATG | 0.156

Sequence | PBM E-score
AATGTGGC | 0.105
AAGATACT | 0.0322
ACCCTCAG | -0.0173
GCGAGCGA | 0.0975
CGTATAAG | -0.0703
ATCTGACG | -0.0358
ACGACAGC | 0.00648
AATAGATT | -0.00061
CGATTAAG | -0.0745
CACCCTAG | 0.0911
ATAATGTG | 0.094
CATAACTC | 0.0245
CAGGCAAC | 0.078
AGCCTACC | -0.159
CGTGTCGA | -0.00815
GCAATAAA | 0.0117
AATATACG | -0.0103
CGGCTAGA | -0.198
ACCGGACA | -0.0713
CAAAGCCC | -0.099
AGGAGTTG | -0.00747
ACGTGGAC | -0.0382
AAGCATAT | 0.0754
AACCTTCA | -0.0529
ATAAATTC | -0.136

Sequence | PBM E-score
AACAAGGT | 0.00321
AAGTCTAC | -0.0786
CCGCACTC | 0.0922
CGCATATC | 0.262
CAGGCTAC | 0.0449
CTGGTCAC | 0.05
GCCCCAGA | 0.103
CCACACCC | 0.197
CATGATCG | 0.127
TACTCCCA | 0.131
ACCACCCT | -0.0842
CTATGGGC | -0.141
ATCGGCAC | 0.0188
CCCCGCGC | -0.00559
GCCCGGGA | 0.11
AACACTTC | 0.014
CGTACCGC | -0.0362
ACACGGGA | 0.136
AACCGACA | 0.123
